Results taken from PubChem BioAssay AID1745853 (National Center for Advancing Translational Sciences (NCATS), 2022).
Values joined by “and” are separate entries in the source; they are usually repeats but may differ in a detail not shown here. Identical values can stand only once. The list shows a part of the results. Shown are side measurements of this screen, not its main read-out; they come without a call.

Experiments:
Assay in all cases: Primary Screen for Target Class Profiling of Small Molecule Inhibitors of Methyltransferases
[1] = target: Glycine N-methyltransferase (Homo sapiens) (UniProt Q14749); settings: purified enzyme, MTase-Glo SAH luminescence; measured here: GNMT inhibition; at 40 µM; stronger effect = lower value
Procedure, shortened: (§1)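 Each enzyme was assayed with SAM and its substrate. SAH formation detected by MTase-Glo luminescence; single-point 40 uM screen[…].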

[2] = target: Guanidinoacetate N-methyltransferase (Homo sapiens) (UniProt Q14353); settings: purified enzyme, MTase-Glo SAH luminescence; measured here: GAMT inhibition; at 40 µM; stronger effect = lower value
Procedure, shortened: as §1

[3] = target: Histamine N-methyltransferase (Homo sapiens) (UniProt P50135); settings: purified enzyme, MTase-Glo SAH luminescence; measured here: HNMT inhibition; at 40 µM; stronger effect = lower value
Procedure, shortened: as §1

[4] = target: Nicotinamide N-methyltransferase (Homo sapiens) (UniProt P40261); settings: purified enzyme, MTase-Glo SAH luminescence; measured here: NNMT inhibition; at 40 µM; stronger effect = lower value
Procedure, shortened: as §1

[5] = target: Phenylethanolamine N-methyltransferase (Homo sapiens) (UniProt P11086); settings: purified enzyme, MTase-Glo SAH luminescence; measured here: PNMT inhibition; at 40 µM; stronger effect = lower value
Procedure, shortened: as §1
On the % scale 0 is the no-effect control and ±100 the full control effect.

| SMILES | activity change, negative = inhibition [1] | activity change, negative = inhibition [2] | activity change, negative = inhibition [3] | activity change, negative = inhibition [4] | activity change, negative = inhibition [5] |
| --- | --- | --- | --- | --- | --- |
| COc1ccc(-c2n[nH]n3c2nc(=O)c2ccc(C(=O)NCc4ccc(Cl)cc4)cc23)cc1 | -1.21% | 0.681% | 3.97% | 5.52% | 0.015% |
| CC(=O)O[C@@H]1[C@@H](OC(=O)/C=C/c2ccccc2)[C@H](C)O[C@@H](O[C@H]2[C@@H]3C=CO[C@@H](O[C@@H]4O[C@H](CO)[C@@H](O)[C@H](O)[C@H]4O)[C@@H]3[C@@]3(CO)O[C@@H]23)[C@@H]1OC(C)=O | 0% | 8.7% | 8.04% | -4.86% | 9.04% |
| CC1CCC(NC(=O)C2(C)Cn3c(nc4ccccc43)C(=O)N2CCN2CCOCC2)CC1 (stereo not given) | 0.761% | 2.73% | 5.89% | 5.07% | -0.453% |
| CCOc1ccccc1CN1C(=O)c2cc3occc3n2CC1(C)C(=O)NC1CCCCCC1 (stereo not given) | 3.08% | 0% | 5.17% | -3.7% | -3.56% |
| COC(=O)c1cc2n(n1)CC(C)(C(=O)NC1CCC(C)CC1)N(c1ccc(C)cc1C)C2=O (stereo not given) | 3.11% | 4.19% | 6.45% | 3.11% | 1.07% |
| CN1CCN(C(=O)CC[C@@H]2CNC(=O)[C@@H]3C[C@H](NC(=O)c4cccc(F)c4)CN23)CC1 | -1.67% | -2.93% | -1% | -2.1% | -1.31% |
| CC(C)Oc1ccc(CN2C(=O)c3cc4ccccc4n3CC2(C)C(=O)NCc2ccccc2)cc1 (stereo not given) | 2.62% | 0% | 1.32% | 0.825% | -3.04% |
| Cc1csc(NC(=O)c2nc3c(o2)CCN(Cc2ccccc2F)CC3)n1 | -8.68% | -4.79% | -0.966% | -2.9% | -5.53% |
| CCN(CC)CCCNC(=O)CCc1nnc2n(Cc3ccc(F)cc3)c(=O)c3ccccc3n12 | -9.03% | -4.3% | -55% | 0.37% | -6.49% |
| CCCn1c(=O)c2ccc(C(=O)NCC(C)C)cc2n2c(=O)n(CC(=O)Nc3ccccc3)nc12 | 2.56% | 0% | 2.44% | 3.56% | 2.26% |
| O=C(c1ccc(Br)cc1)N1CCN(c2cc(-c3ccccc3)[nH]n2)CC1 | -17.6% | -12% | -8.13% | -18.3% | -19.4% |
| CCCN1C(=O)c2c(C(=O)NCc3ccc(SC)cc3)ncn2CC1(C)C(=O)NCCC(C)C (stereo not given) | -1.31% | 4.4% | -3.03% | -4.28% | 1.23% |
| Cc1ccc(C(=O)Cn2nc3n(CC(C)C)c(=O)c4ccccc4n3c2=O)c(C)c1 | 2.45% | 1.06% | 7.85% | -2.03% | 3.55% |
| CC(=O)C1=CCC2C3CC=C4CC(O)CC(O)C4(C)C3C(O)CC12C (stereo not given) | -4.32% | 2.88% | -5.37% | -9.92% | -0.383% |
| COC(=O)C1=COC(OC2OC(CO)C(O)C(O)C2O)C2C1C=CC2(O)CO (stereo not given) | 2.06% | 2.01% | 7.68% | -9.61% | 5.24% |
| CC(C)NC(=O)c1ccc2c(=O)n(C3CC3)c3nn(CC(=O)Nc4ccc(Cl)cc4)c(=O)n3c2c1 | 3.59% | 6.55% | 10.3% | -3.98% | 4.01% |
| COc1ccc(CNC(=O)Cn2c(=O)oc3cc(S(=O)(=O)N4CCCC4)ccc32)cc1 | -1.82% | 0% | 0.926% | -2.86% | -8.77% |
| C[C@H](O)[C@H](O)/C=C/c1cccc(O)c1CO | 0.271% | 1.76% | 6.73% | -10.5% | -3.8% |
| COc1c2c(nc3occc13)C(CC=C(C)C)(OC)C(O)CC2 (stereo not given) | 0% | -10.8% | 3.64% | -22.7% | -9.12% |
| COCCc1noc(-c2ccc(Cn3nc(C)cc3C)cc2)n1 | -1.85% | -4.27% | -0.444% | -6.01% | 0.439% |
| CN1C[C@@H](NC(=O)c2ccc(C#N)cc2)C[C@H]1c1nc(Cc2ccccc2)no1 | -7.75% | -6.13% | -3.12% | -9.16% | 7.17% |
| C[C@]1(OC(=O)/C=C\c2ccc(O)cc2)C[C@@H](O)[C@]2(O)C=CO[C@@H](O[C@@H]3O[C@H](CO)[C@@H](O)[C@H](O)[C@H]3O)C12 (stereo not given in full) | -2.12% | -0.48% | 10.7% | -11.7% | -8.03% |
| CCOC(=O)c1cc2n(n1)CC(C)(C(=O)NCCC(C)C)N(Cc1cccc(F)c1)C2=O (stereo not given) | -7.18% | 1.5% | -7.47% | -3.17% | -7.57% |
| CCCCNc1cc(C(=O)O)cc(S(N)(=O)=O)c1Oc1ccccc1 | 2.78% | 8.34% | 12.3% | -9.4% | -1.67% |
| Fc1ccc2[nH]c(CN3CCN(c4ccccn4)CC3)cc2c1 | -8.27% and -4.89% | 1.18% and -9.73% | -0.653% and -3.67% | -11.3% and -22.9% | 2.46% and -13.7% |
| O=C(NC1CCC1)c1ccc(C#Cc2cccc(F)c2)nc1 | -4.25% | -6.77% | 4.78% | -15.3% | -11.8% |
| CCCn1c(=O)c2cc(Cl)ccc2n2c(=O)n(CC(=O)Nc3ccc4c(c3)OCO4)nc12 | -0.502% | 2.58% | 4.14% | 0.201% | -1.08% |
| COc1cccc(CN2C(=O)c3ccc(-c4ccccc4)n3CC2(C)C(=O)NC2CCCC2)c1 (stereo not given) | 4.95% | 5.92% | 7.36% | 0.129% | 4.18% |
| COC(=O)Cc1c(-c2ccccc2)c2cc(C)ccc2[nH]c1=O | -9.67% | 0% | 7.86% | 0.736% | 0.879% |
